Values joined by “and” are separate entries in the source; they are usually repeats but may differ in a detail not shown here. Equal entries are not always repeated. Not every detail of the peptide structures is certain; ends, links or a residue may be inferred. Square brackets hold non-standard residues; d marks the D form. Side chains are listed from the residue outwards. Peptide text beside a SMILES is read from it. * marks the point of attachment. Phe(4-NH(5-NH2triazol-3-yl)) = Nc1nc(Nc2ccc(C[C@H](N)C(=O)O)cc2)n[nH]1; dPhe(4-NH2) = Nc1ccc(C[C@@H](N)C(=O)O)cc1; dPhe(4-Cl) = N[C@H](Cc1ccc(Cl)cc1)C(=O)O; Phe(4-NH2) = Nc1ccc(C[C@H](N)C(=O)O)cc1; d2Nal = N[C@H](Cc1ccc2ccccc2c1)C(=O)O; Lys(iPr) = CC(C)NCCCC[C@H](N)C(=O)O; X4 = Nc1n[nH]c(N[C@@H](CO)C(=O)*)n1; X2 = C[C@H](Nc1nc(N)n[nH]1)C(=O)*; dCit = NC(=O)NCCC[C@@H](N)C(=O)O; d3Pal = N[C@H](Cc1cccnc1)C(=O)O; pGlu = O=C1CC[C@@H](C(=O)O)N1; X1 = Nc1n[nH]c(NCC(=O)*)n1
Key:
[1] = test system: mature female Sprague-Dawley rats; assay: in vivo test of effectiveness to prevent ovulation in female rats; design: species or system rat; details: injected at about noon on the day of proestrus, rats ovulating/rats treated
[2] = test system: dissociated rat pituitary cells; assay: in vitro inhibition of GnRH-induced LH secretion, dissociated rat pituitary cells, radioimmunoassay for rat LH; assay type: cell-based; details: 3 nanomolar GnRH plus peptide 0.01 to 10 nanomolar; LH secreted
[3] = test system: LH secretion; assay: duration of effectiveness: suppression of LH level in peripheral serum; assay type: in vivo; details: LH suppressed to less than (about) 20% of starting/original concentration
[4] = test system: female rats; assay: biological testing in vivo: release of LH and FSH in female rats (GnRH agonists); design: species or system rat

Row | Compound | Rats Ovulating ([1]; dosage 1.0 micrograms) | Rats Ovulating ([1]; dosage 2.5 micrograms) | also measured
1 | CC(=O)N[C@H](Cc1ccc2ccccc2c1)C(=O)N[C@H](Cc1ccc(Cl)cc1)C(=O)N[C@H](Cc1cccnc1)C(=O)N[C@@H](CO)C(=O)N[C@@H](Cc1ccc(NC(=O)CNc2nc(N)n[nH]2)cc1)C(=O)N[C@H](Cc1ccc(NC(=O)CNc2nc(N)n[nH]2)cc1)C(=O)N[C@@H](CC(C)C)C(=O)N[C@@H](CCCCNC(C)C)C(=O)N1CCC[C@H]1C(=O)N[C@H](C)C(N)=O [Peptide No. 1, [Ac-β-D-2NAL^1, (4Cl)D-Phe^2, D-3PAL^3, Aph(Gly)(atz)^5, D-Aph(Gly)(atz)^6, ILys^8, D-Ala^10]-GnRH] (Ac-[d2Nal][dPhe(4-Cl)][d3Pal]S[Phe(4-NH2)](X1)[dPhe(4-NH2)](X1)L[Lys(iPr)]P[dA]-NH2) | 5 out of 8 and 5/8 | – | Rats Ovulating ([1]; dosage 0.5 micrograms): 3 out of 4 and 3/4; potency relative to the present standard antagonist [Ac-Δ3 Pro1, D-4FPhe2, D-Trp3,6]-GnRH [2]: more potent than the present standard; duration of suppression of LH [3]: more than 48 hours
2 | CC(=O)N[C@H](Cc1ccc2ccccc2c1)C(=O)N[C@H](Cc1ccc(Cl)cc1)C(=O)N[C@H](Cc1cccnc1)C(=O)N[C@@H](CO)C(=O)N[C@@H](Cc1ccc(NC(=O)[C@H](C)Nc2nc(N)n[nH]2)cc1)C(=O)N[C@H](Cc1ccc(NC(=O)[C@H](C)Nc2nc(N)n[nH]2)cc1)C(=O)N[C@@H](CC(C)C)C(=O)N[C@@H](CCCCNC(C)C)C(=O)N1CCC[C@H]1C(=O)N[C@H](C)C(N)=O [Peptide No. 4] (Ac-[d2Nal][dPhe(4-Cl)][d3Pal]S[Phe(4-NH2)](X2)[dPhe(4-NH2)](X2)L[Lys(iPr)]P[dA]-NH2) | 1/8 | – | Rats Ovulating ([1]; dosage 0.5 micrograms): 4/4
3 | CC(=O)Nc1ccc(C[C@@H](NC(=O)[C@H](Cc2ccc(Nc3nc(N)n[nH]3)cc2)NC(=O)[C@H](CO)NC(=O)[C@@H](Cc2cccnc2)NC(=O)[C@@H](Cc2ccc(Cl)cc2)NC(=O)[C@@H](Cc2ccc3ccccc3c2)NC(C)=O)C(=O)N[C@@H](CC(C)C)C(=O)N[C@@H](CCCCNC(C)C)C(=O)N2CCC[C@H]2C(=O)N[C@H](C)C(N)=O)cc1 [Peptide No. 40] (Ac-[d2Nal][dPhe(4-Cl)][d3Pal]S[Phe(4-NH(5-NH2triazol-3-yl))][dPhe(4-NH2)](Ac)L[Lys(iPr)]P[dA]-NH2) | 2/7 | 0/8 | duration of suppression of LH [3]: more than 72 hours
4 | CCNC(=O)[C@@H]1CCCN1C(=O)[C@H](CCCNC(=N)N)NC(=O)[C@H](CC(C)C)NC(=O)[C@@H](Cc1ccc(NC(C)=O)cc1)NC(=O)[C@H](Cc1ccc(O)cc1)NC(=O)[C@H](CO)NC(=O)[C@H](Cc1c[nH]c2ccccc12)NC(=O)[C@H](Cc1c[nH]cn1)NC(=O)[C@@H]1CCC(=O)N1 [Peptide No. 70, pGlu-His-Trp-Ser-Tyr-D-Aph(Ac)-Leu-Arg-Pro-NHCH2 CH3] | – | – | release of LH and FSH [4]: good biological activity in causing the release of LH and FSH in female rats
5 | CC(=O)N[C@H](Cc1ccc2ccccc2c1)C(=O)N[C@H](Cc1ccc(Cl)cc1)C(=O)N[C@H](Cc1cccnc1)C(=O)N[C@@H](CO)C(=O)N[C@@H](Cc1ccc(NC(=O)[C@H](CO)Nc2nc(N)n[nH]2)cc1)C(=O)N[C@H](Cc1ccc(NC(=O)[C@H](CO)Nc2nc(N)n[nH]2)cc1)C(=O)N[C@@H](CC(C)C)C(=O)N[C@@H](CCCCNC(C)C)C(=O)N1CCC[C@H]1C(=O)N[C@H](C)C(N)=O [compound 10] (Ac-[d2Nal][dPhe(4-Cl)][d3Pal]S[Phe(4-NH2)](X4)[dPhe(4-NH2)](X4)L[Lys(iPr)]P[dA]-NH2) | 8/12 | – | –
6 | CC(=O)N[C@H](Cc1ccc2ccccc2c1)C(=O)N[C@H](Cc1ccc(Cl)cc1)C(=O)N[C@H](Cc1cccnc1)C(=O)N[C@@H](CO)C(=O)N[C@@H](Cc1ccc(NC(=O)[C@@H]2CCC(=O)N2)cc1)C(=O)N[C@H](Cc1ccc(NC(=O)[C@@H]2CCC(=O)N2)cc1)C(=O)N[C@@H](CC(C)C)C(=O)N[C@@H](CCCCNC(C)C)C(=O)N1CCC[C@H]1C(=O)N[C@H](C)C(N)=O [compound 15] (Ac-[d2Nal][dPhe(4-Cl)][d3Pal]S[Phe(4-NH2)](pGlu)[dPhe(4-NH2)](pGlu)L[Lys(iPr)]P[dA]-NH2) | 2/2 | 4/8 | –
7 | CC(=O)N[C@H](Cc1ccc2ccccc2c1)C(=O)N[C@H](Cc1ccc(Cl)cc1)C(=O)N[C@H](Cc1cccnc1)C(=O)N[C@@H](CO)C(=O)N[C@@H](Cc1ccc(NC(=O)[C@@H](N)CO)cc1)C(=O)N[C@H](Cc1ccc(NC(=O)[C@@H](N)CO)cc1)C(=O)N[C@@H](CC(C)C)C(=O)N[C@@H](CCCCNC(C)C)C(=O)N1CCC[C@H]1C(=O)N[C@H](C)C(N)=O [compound 16] (Ac-[d2Nal][dPhe(4-Cl)][d3Pal]S[Phe(4-NH2)](Ser)[dPhe(4-NH2)](Ser)L[Lys(iPr)]P[dA]-NH2) | 4/5 | – | –
8 | CC(=O)N[C@@H](CO)C(=O)Nc1ccc(C[C@H](NC(=O)[C@H](CO)NC(=O)[C@@H](Cc2cccnc2)NC(=O)[C@@H](Cc2ccc(Cl)cc2)NC(=O)[C@@H](Cc2ccc3ccccc3c2)NC(C)=O)C(=O)N[C@H](Cc2ccc(NC(=O)[C@H](CO)NC(C)=O)cc2)C(=O)N[C@@H](CC(C)C)C(=O)N[C@@H](CCCCNC(C)C)C(=O)N2CCC[C@H]2C(=O)N[C@H](C)C(N)=O)cc1 [compound 17] (Ac-[d2Nal][dPhe(4-Cl)][d3Pal]S[Phe(4-NH2)]([Ser-Ac])[dPhe(4-NH2)]([Ser-Ac])L[Lys(iPr)]P[dA]-NH2) | 4/7 | 1/9 | –
9 | CC(=O)N[C@H](Cc1ccc2ccccc2c1)C(=O)N[C@H](Cc1ccc(Cl)cc1)C(=O)N[C@H](Cc1cccnc1)C(=O)N[C@@H](CO)C(=O)N[C@@H](Cc1ccc(NC(=O)[C@H](N)CO)cc1)C(=O)N[C@H](Cc1ccc(NC(=O)[C@H](N)CO)cc1)C(=O)N[C@@H](CC(C)C)C(=O)N[C@@H](CCCCNC(C)C)C(=O)N1CCC[C@H]1C(=O)N[C@H](C)C(N)=O [compound 18] (Ac-[d2Nal][dPhe(4-Cl)][d3Pal]S[Phe(4-NH2)](dS)[dPhe(4-NH2)](dS)L[Lys(iPr)]P[dA]-NH2) | – | 2/5 | –
10 | CC(=O)N[C@H](CO)C(=O)Nc1ccc(C[C@H](NC(=O)[C@H](CO)NC(=O)[C@@H](Cc2cccnc2)NC(=O)[C@@H](Cc2ccc(Cl)cc2)NC(=O)[C@@H](Cc2ccc3ccccc3c2)NC(C)=O)C(=O)N[C@H](Cc2ccc(NC(=O)[C@@H](CO)NC(C)=O)cc2)C(=O)N[C@@H](CC(C)C)C(=O)N[C@@H](CCCCNC(C)C)C(=O)N2CCC[C@H]2C(=O)N[C@H](C)C(N)=O)cc1 [compound 19] (Ac-[d2Nal][dPhe(4-Cl)][d3Pal]S[Phe(4-NH2)]([dS-Ac])[dPhe(4-NH2)]([dS-Ac])L[Lys(iPr)]P[dA]-NH2) | 2/7 | – | –
11 | CC(=O)N[C@H](Cc1c[nH]cn1)C(=O)Nc1ccc(C[C@H](NC(=O)[C@H](CO)NC(=O)[C@@H](Cc2cccnc2)NC(=O)[C@@H](Cc2ccc(Cl)cc2)NC(=O)[C@@H](Cc2ccc3ccccc3c2)NC(C)=O)C(=O)N[C@H](Cc2ccc(NC(=O)[C@@H](Cc3c[nH]cn3)NC(C)=O)cc2)C(=O)N[C@@H](CC(C)C)C(=O)N[C@@H](CCCCNC(C)C)C(=O)N2CCC[C@H]2C(=O)N[C@H](C)C(N)=O)cc1 [compound 20] (Ac-[d2Nal][dPhe(4-Cl)][d3Pal]S[Phe(4-NH2)]([dH-Ac])[dPhe(4-NH2)]([dH-Ac])L[Lys(iPr)]P[dA]-NH2) | 4/15 | 0/2 | –
12 | CC(=O)N[C@H](CC(N)=O)C(=O)Nc1ccc(C[C@H](NC(=O)[C@H](CO)NC(=O)[C@@H](Cc2cccnc2)NC(=O)[C@@H](Cc2ccc(Cl)cc2)NC(=O)[C@@H](Cc2ccc3ccccc3c2)NC(C)=O)C(=O)N[C@H](Cc2ccc(NC(=O)[C@@H](CC(N)=O)NC(C)=O)cc2)C(=O)N[C@@H](CC(C)C)C(=O)N[C@@H](CCCCNC(C)C)C(=O)N2CCC[C@H]2C(=O)N[C@H](C)C(N)=O)cc1 [compound 21] (Ac-[d2Nal][dPhe(4-Cl)][d3Pal]S[Phe(4-NH2)]([dN-Ac])[dPhe(4-NH2)]([dN-Ac])L[Lys(iPr)]P[dA]-NH2) | 4/6 | – | –
13 | CC(=O)N[C@H](CCCNC(N)=O)C(=O)Nc1ccc(C[C@H](NC(=O)[C@H](CO)NC(=O)[C@@H](Cc2cccnc2)NC(=O)[C@@H](Cc2ccc(Cl)cc2)NC(=O)[C@@H](Cc2ccc3ccccc3c2)NC(C)=O)C(=O)N[C@H](Cc2ccc(NC(=O)[C@@H](CCCNC(N)=O)NC(C)=O)cc2)C(=O)N[C@@H](CC(C)C)C(=O)N[C@@H](CCCCNC(C)C)C(=O)N2CCC[C@H]2C(=O)N[C@H](C)C(N)=O)cc1 [compound 22] (Ac-[d2Nal][dPhe(4-Cl)][d3Pal]S[Phe(4-NH2)]([dCit-Ac])[dPhe(4-NH2)]([dCit-Ac])L[Lys(iPr)]P[dA]-NH2) | 6/7 | 4/8 | –
14 | CC(=O)NCC(=O)Nc1ccc(C[C@H](NC(=O)[C@H](CO)NC(=O)[C@@H](Cc2cccnc2)NC(=O)[C@@H](Cc2ccc(Cl)cc2)NC(=O)[C@@H](Cc2ccc3ccccc3c2)NC(C)=O)C(=O)N[C@H](Cc2ccc(NC(=O)CNC(C)=O)cc2)C(=O)N[C@@H](CC(C)C)C(=O)N[C@@H](CCCCNC(C)C)C(=O)N2CCC[C@H]2C(=O)N[C@H](C)C(N)=O)cc1 [compound 23] (Ac-[d2Nal][dPhe(4-Cl)][d3Pal]S[Phe(4-NH2)]([Gly-Ac])[dPhe(4-NH2)]([Gly-Ac])L[Lys(iPr)]P[dA]-NH2) | 5/8 | – | Rats Ovulating ([1]; dosage 0.5 micrograms): 3/4
15 | CC(=O)Nc1ccc(C[C@H](NC(=O)[C@H](CO)NC(=O)[C@@H](Cc2cccnc2)NC(=O)[C@@H](Cc2ccc(Cl)cc2)NC(=O)[C@@H](Cc2ccc3ccccc3c2)NC(C)=O)C(=O)N[C@H](Cc2ccc(NC(C)=O)cc2)C(=O)N[C@@H](CC(C)C)C(=O)N[C@@H](CCCCNC(C)C)C(=O)N2CCC[C@H]2C(=O)N[C@H](C)C(N)=O)cc1 [compound 34] (Ac-[d2Nal][dPhe(4-Cl)][d3Pal]S[Phe(4-NH2)](Ac)[dPhe(4-NH2)](Ac)L[Lys(iPr)]P[dA]-NH2) | 5/15 | – | Rats Ovulating ([1]; dosage 0.5 micrograms): 6/7

From patent US5506207A, “GNRH antagonists XIII” (The Salk Institute for Biological Studies, priority 1994, dated 1996)
